Measurements reported in the supplement of paper PMC10338343.
± gives the standard deviation. Whole data set: some 5,500 sequences, median “pre-steady-state target cleavage rate” near 0.1, cut for the highest 2% near 0.64. Only a part is listed here, and it is no random draw.

system: MIWI (PIWIL1) piRISC loaded with piRNA #2 (30 nt); experiment: pre-steady-state target cleavage rate (min^-1); MIWI and MILI are mouse PIWI proteins and EfPiwi is from a freshwater sponge; tags in brackets are library labels; higher = faster piRNA-guided slicing of the target; settings: guide: piRNA #2 5'p-UUAGGUAACCCAGUAGAUCCAGAGGAAUUC; auxiliary factor: 500 nM mouse GTSF1
Experimental: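 Cleave-'n-Seq: a library of target RNAs (target site embedded in constant flanks, ACAGCATTCCGCGTTAGTGATATCCG... 5' flank; DNA-blocked outside the site) at 0.1 nM was incubated with 1 nM active mouse MILI or MIWI piRISC (synthetic 5'-monophosphorylated piRNA guide) with or without 500 nM mouse GTSF1 at 33 °C for 1 min to 16 h. Uncleaved targets were sequenced and normalised to non-target controls, and the pooled three trials were fitted to a burst-and-steady-state model to give the pre-steady-state cleavage rate (min^-1; k3 is constrained to at most 1e-4). Sequence is the target site only; target names encode pairing extent (gX:gY) and contiguous / 1-mismatch / 2-mismatch / bulge geometry. Fits with R² ≤ 0 are excluded.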

Sequence	pre-steady-state target cleavage rate
CUUUUCGUCUGCAUCUACUGGGUUACCUAA	0.394 ± 0.033
CUAUUCCUCUGGAUGUACUGGGUUUCCUAA	0.486 ± 0.12
CUUAUCCUCUGGAUCUAGUGGCUUACCUAA	0.00764 ± 0.0042
GAAUAUCCUCUGGAUCUACUGGGUUACCUAA	0.109 ± 0.044
CUAUUCCUCUGGAUCAACUGGGUUACCAAA	0.365 ± 0.053
CUUAUCCUCAUGGAUCUACUGGGUUACCUAA	0.486 ± 0.057
CUUAAGGUCUGGAUCUACUGGGUUUCCUUA	0.0461 ± 0.011
CAAUUCCUCUGGAUUCUACUGGGUUACCUAA	0.473 ± 0.059
CUUAAGGACUGGAUAUACUGGGUUACCUAA	0.129 ± 0.061
CUUAUCCUCUGGAUCUACUGGGUUAGCAAA	0.301 ± 0.073
CUUAAGGACUGGAUCUACUGGGUUACCUCA	0.0791 ± 0.038
GAAUUCCUCUGGAUCUACUGGGAUACCUUA	0.163 ± 0.047
GAAUACCUCUGGAUCUACUGGGUUAGCUAA	0.615 ± 0.052
CUUAUCGUCUGGAUCUUCUGGGUUACCUAA	0.139 ± 0.032
CUAUUCCUGUGGAUCUACUCGGUUACCUAA	0.0779 ± 0.014
GAAUUCCACUGGUUCUACUGGGUUACCUAA	0.495 ± 0.04
CUUAAGGUCUGGAUCUACUGGGGUACCUAA	0.052 ± 0.0096
CAAUUCCACUGGAUCUACUGGGAUACCUAA	0.455 ± 0.059
CUUAUCCUUUGGAUCUACUGGGUUACCUAA	0.49 ± 0.041
CUUAACCUCUGGAUCUACUGGCUUACCAAA	0.0497 ± 0.012
CUAUUCCUCUGGAAGAACUGGGUUACCUAA	0.16 ± 0.042
CUAUUGCUCUGGAUGUACUGGGUUACCUAA	0.227 ± 0.026
CUUAUCCUCUGGAUCUACUGGAUUACCUAA	0.402 ± 0.049
CUUAUCCUCUGGAUCUACUCGGUUAGCUAA	0.0153 ± 0.008

Sequence	pre-steady-state target cleavage rate
CAUUUCCUCUGGAUCUUCUGGGUUACCUAA	0.551 ± 0.067
CUUAUCCACUGGAUCUACUGGGUUUCCUAA	0.371 ± 0.05
CUUAAGCACUGGAUCUACUGGGUUACGUAA	0.458 ± 0.044
CUUUUCUCUGGAUCUACUGGGUUACCUAA	0.276 ± 0.046
GAAUUCCUCAGGAUCUACUGGGUUACCUUA	0.467 ± 0.061
GAAAUCCUCUGCAUCUACUGGGUUACCUAA	0.326 ± 0.038
CUUUUCCUCUGGAUCUACUGGGUUUGCUAA	0.289 ± 0.045
CUUAAGCUCUGGAUCUACUGGGUUAACUAA	0.381 ± 0.041
CUAUUCCUGUGGAUGUACUGGGUUACCUAA	0.459 ± 0.04
CUUAACCUCUGGAUCUACUGGGUUACCUAC [g2:g25:cont:t1C]	0.21 ± 0.025
CUUAUCCUCUGGAUCUACUGGGUUACCUAA [g2:g26:cont:t1A]	0.414 ± 0.063
CUUAACCUCACGAUCUACUGGGUUACCUAA	0.284 ± 0.025
CUUAAGCUCUGGAUCUACGGGGUUACCUAA	0.032 ± 0.0074
CUUAAGCUCAGGAUCUACUCGGUUACCUAA	0.038 ± 0.013
GAAUUCGUCUGGAUCUACUGCGUUACCUAA	0.329 ± 0.041
CUUAUCCUCUGGAUCUACUGGGUUACGAUA	0.25 ± 0.048
CUUUUCCUCUGGAUCUACUGGGUUAGGAAA	0.00704 ± 0.0024
CUUAAGGAGUGGAUCUACUGCGUUACCAAA	0.00817 ± 0.005
CUUAACGUGUGGAUCUACUGGGUUACCUAA	0.282 ± 0.039
CAAUUCCUCUGGAUCUACUGGGGUACCUAA	0.229 ± 0.057
GAAUUCCUCUGGUUCUACUGGGUUAGCUAA	0.495 ± 0.049
CUUAAGGACUGGAUCUACUGGGUUACCUAC [g2:g22:cont:t1C]	0.119 ± 0.05
CAUUUGCUCUGGAUCUACUGGGUUACCUAA	0.291 ± 0.041
CUUAUCCUCUCGAUCUAGUGGGUUACCUAA	0.292 ± 0.021

Sequence	pre-steady-state target cleavage rate
GAAUUCCUCUGGAUCUACUGGGUUACCUA	0.37 ± 0.07
CUUAAGCUCUGGAUCUACUGGGUAACCUUA	0.0535 ± 0.016
GAUUUCCUCUGCAUCUACUGGGUUACCUAA	0.269 ± 0.036
CUUAUCCUGUGGAUCUACAGGGUUACCUAA	0.363 ± 0.028
CUUUUCCUCUGGAUGUAGUGGGUUACCUAA	0.0917 ± 0.017
GAAUUCCUCUGGAUCUACUGCCAUACCUAA	0.00422 ± 0.0027
CAAUUCCUCUGGAUCUACUGGCAUACCUAA	0.00973 ± 0.0052
CAAUUCACUCUGGAUCUACUGGGUUACCUAA	0.266 ± 0.049
CUUAUCCUCUGCGAUCUACUGGGUUACCUAA	0.315 ± 0.03
CUUAAGGUCUGGUUCUACAGGGUUACCUAA	0.119 ± 0.011
CAAAUCCUCUGGAUCUACUGGGUUUCCUAA	0.268 ± 0.042
GAAAUCCUGUGGAUCUACUGGGUUACCUAA	0.278 ± 0.059
CUUUUCGUCUGGAUCUACUGGGUUAGCUAA	0.17 ± 0.044
GAAUUCCUCUGGAUCUACUGCGGUUACCUAA	0.00432 ± 0.0031
CUUAAGGAGAGGAUCUACUGGGUUACCUGAA	0.00519 ± 0.004
CUUUUCGUCUGGAUCUACUGGGUUACCUAA	0.353 ± 0.046
CUUAUCCUCUGGCAUCUACUGGGUUACCUAA	0.136 ± 0.038
CAAUUCCUCUGGAUCUACUGGCUUUCCUAA	0.089 ± 0.028
CUUAAGCUGAGGAUCUACUGGGUUACCUAA	0.0478 ± 0.0073
CAAUUCCUCUGGAUGUAGUGGGUUACCUAA	0.0865 ± 0.02
GAAUUCCUCUGGAUCUACUGGGUUUCCUUA	0.309 ± 0.083
CUUUUCCUGUGGAUGUACUGGGUUACCUAA	0.384 ± 0.035
CAAUUCCUGUGGAUCUACUGGGUUAGCUAA	0.133 ± 0.044
